In PubChem BioAssay AID1963576 (National Center for Advancing Translational Sciences (NCATS), 2024):
About 60 (0.1%) of roughly 46,000 compounds were called active. Another 3% or so got no clear call; they are omitted. The call rests on the fitted dose curve; in most records, active means well fitted inhibition curve with a large enough effect; inconclusive means small, poorly fitted or top-dose-only effect; inactive means no such curve, though single readings can be large or run the other way. Some of the results follow.

assay: Primary qHTS assay for Inhibitors of ovarian cancer metastasis using an organotypic tumor microenvironment (TME) model.; further: nearly all actives have a fitted effect of over 65% in size;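 on activity change, negative = inhibition: plate controls were DMSO wells for no effect and tomatine positive control wells for full effect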; conditions: SKOV3ip1-GFP adhesion/invasion on 3D omental model, fluorescence; series mostly up to 45.8 µM; activity change, negative = inhibition: at the top concentration
Procedure, shortened: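 qHTS, 4-pt dose (0.36-46 umol/L); SKOV3ip1-GFP, 1,200 cells/well, no FBS; primary omental fibroblast/mesothelial co-culture 48 h pre-grown; 2 h RT + 16 h 37 C; PBS wash, 4% PFA; GFP count 488/509 nm.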

Activity change, negative = inhibition, inactive:
COc1cccc(CNC(=O)c2sc3nc4n(c(=O)c3c2C)CCC4)c1 -11%
O=C(NCCc1cccs1)c1ccc(Cn2c(SCc3ccccc3)nc3cccnc32)cc1 1.18%
CC(C)(C)c1cnc(CSc2cnc(NC(=O)C3CCNCC3)s2)o1 12.2%
Cc1ccc(Cn2c(=O)n(CC3CCC(C(=O)N4CCC(C)CC4)CC3)c(=O)c3sccc32)cc1 (stereo not drawn) 20.2%
Cc1ccc(CNC(=O)c2c(O)nc3ccccn3c2=O)cc1 7.77%
Cc1c(Cl)cccc1NC(=O)NCc1c(-n2cccc2)sc2c1CCCC2 2.87%
Cc1ccc(N(Cc2cccs2)C(=O)Nc2cccc(Cl)c2)cc1 -5.31%
CCOC(=O)c1ccccc1NC(=O)c1cc2c(s1)-c1c(C)cccc1OC2 -0.159%
COc1ccc(N2CC3=C(C2=O)C(c2ccc(O)c(OC)c2)NC(=O)N3C)cc1 (stereo not drawn) -3.06%
CC(C)OCCCNc1sc(S(=O)(=O)c2ccccc2)nc1S(=O)(=O)c1ccc(Cl)cc1 5.52%
Cc1c(C(=O)Nc2ccc(F)cc2F)oc2ccc3c(c12)C(=O)CC(C)(C)O3 -16.1%
Cn1ncc2c(NCc3ccc(Cl)cc3)ncnc21 -2.53%
COc1ccc(CCNC(=O)c2cnc3ccc(C)cn3c2=O)cc1OC 2.69%
COCCCNC(=O)c1cc(-c2ccc(OC)cc2)nc2n[nH]c(-c3ccc(Cl)cc3)c12 25.4%
Cc1ccsc1CN(Cc1ccco1)C(=O)c1ccc(Cl)cc1 -2.67%
CCOc1ccc(NC(=O)CSc2ncn[nH]2)cc1 2.11%
CCOC(=O)c1cc(-c2ccc(OC)cc2)n(CCC(=O)NCc2ccccc2OC)c1C 1.67%
CON(C)C(=O)N1N=C(c2cc(F)ccc2F)S[C@]1(CCCN)c1ccccc1 3.18%
O=C(Nc1nc2c(F)cc(F)cc2s1)c1ccc2c(c1)OCCO2 -4.99%
COc1cc(OC)c(N(C)C(=O)c2cn(C)c(=O)c3cc(OC)c(OC)cc23)cc1Cl 3.22%
O=C(Nc1nc2ccc(F)cc2s1)c1nc(SCc2ccccc2F)ncc1Cl 6.27%

outcome, inactive:
Cc1oc2c(c1C(=O)Nc1ccccc1Br)C1=NCCN1C=N2
CCOc1ccccc1NC(=O)Cn1cnc2c1c(=O)n(C)c(=O)n2C
CCOc1ccccc1NC(=O)CSc1nc2c(oc3ccccc32)c(=O)n1C(C)C
Cc1ccc(C)c(N2CCN(S(=O)(=O)c3ccc(-c4cc(C(F)(F)F)on4)s3)CC2)c1
O=C(NCCc1ccc(Cl)cc1)C(=O)NCC(c1ccc2c(c1)OCO2)N1CCOCC1 (stereo not drawn)
Cc1c(Cl)cccc1NC(=O)C1CCCN(C(=O)c2cnn(-c3ccccc3)c2-n2cccc2)C1 (stereo not drawn)
O=C(CN1C(=O)COc2ccc(S(=O)(=O)N3CCOCC3)cc21)Nc1ccc(F)c(Cl)c1
